Laboratory results published in PubChem BioAssay (Tox21).
Values joined by “and” are separate entries in the source; they are usually repeats but may differ in a detail not shown here. Identical values can stand only once. The inconclusive results got no clear call from the source; some entries with a clear call stand among them for comparison. For some assays here: Potencies beside an inconclusive call are fits to weak or partial responses and may not hold up. The source holds several records for some structures; these can differ, active in one and inactive in another. Active and inactive are the calls of the source. Unless noted, the call rests on the fitted dose curve; in most records, active means well fitted curve in the direction sought with a large enough effect in the repeat runs; inconclusive means weak or mixed curves; inactive means no such curve, though single readings can be large; an effect the other way counts as inactive or inconclusive.

Tests used:
[1] = qHTS assay to identify small molecule antagonists of the retinoic acid receptor (RAR) signaling pathway (AID 1159552; further: nearly all actives have a fitted effect of over 50% in size; further: potency means the concentration at half of the fitted maximal effect)
Method in brief: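 Luminescent RARE reporter read-out in C3RL4 cells: 6 hr co-treatment at 37 C of test compounds with retinol at 1 uM final. Cells plated overnight beforehand; luciferase reagent incubated 30 min at room temperature before reading.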

[2] = qHTS assay to identify small molecule agonists of the retinoic acid receptor (RAR) signaling pathway (AID 1159553); details: C3RL4 RARE luciferase reporter, agonist, 6 h; activation: at 73.3 µM (top of the series) unless noted; further: potency means the concentration at half of the fitted maximal effect; on activation: on the % scale 0 is the no-effect control and ±100 the full control effect
Method in brief: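 Luminescence was measured 30 min after luciferase reagent addition at room temperature. Before that, C3RL4 reporter cells (1,000 per well, plated overnight) were treated with compound for 6 hr at 37 C and 5% CO2.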

[3] = biological target: Luciferin 4-monooxygenase (Photinus pyralis) (UniProt P08659); assay: qHTS assay to identify small molecule inhibitors of firefly luciferase (AID 1224835); further: nearly all actives have a fitted effect of over 25% in size; further: potency means the concentration at half of the fitted maximal effect
Sequence of UniProt P08659 (P08659 whole entry, looked up): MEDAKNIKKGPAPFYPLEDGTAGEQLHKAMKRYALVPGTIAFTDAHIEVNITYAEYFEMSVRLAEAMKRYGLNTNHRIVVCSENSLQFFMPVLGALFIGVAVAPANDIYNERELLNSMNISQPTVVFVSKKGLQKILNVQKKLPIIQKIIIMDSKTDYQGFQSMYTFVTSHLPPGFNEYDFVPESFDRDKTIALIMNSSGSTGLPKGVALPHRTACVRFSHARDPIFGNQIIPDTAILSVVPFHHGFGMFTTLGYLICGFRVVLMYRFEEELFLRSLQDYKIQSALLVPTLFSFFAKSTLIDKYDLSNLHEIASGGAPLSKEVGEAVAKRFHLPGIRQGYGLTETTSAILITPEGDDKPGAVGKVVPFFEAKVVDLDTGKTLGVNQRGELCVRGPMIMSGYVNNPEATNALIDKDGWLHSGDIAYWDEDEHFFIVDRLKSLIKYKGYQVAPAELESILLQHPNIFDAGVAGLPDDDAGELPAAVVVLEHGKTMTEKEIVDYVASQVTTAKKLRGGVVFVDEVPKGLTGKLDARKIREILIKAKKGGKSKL
Method in brief: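 Biochemical qHTS: compounds run as interplate titrations against purified firefly enzyme, with D-luciferin and ATP each at its KM concentration. Light output recorded by CCD imaging.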

[4] = biological target: Nuclear receptor subfamily 1 group I member 3 (Homo sapiens) (UniProt Q14994); assay: qHTS assay to identify small molecule agonists of the constitutive androstane receptor (CAR) signaling pathway (AID 1224839); further: nearly all actives have a fitted effect of over 15% in size; further: potency means the concentration at half of the fitted maximal effect;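 on activation: HepG2 cells stably carrying human CAR and a CYP2B6 luciferase reporter; on the % scale 0 is the no-effect control and ±100 the full control effect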
Sequence of UniProt Q14994 (Q14994 whole entry, looked up): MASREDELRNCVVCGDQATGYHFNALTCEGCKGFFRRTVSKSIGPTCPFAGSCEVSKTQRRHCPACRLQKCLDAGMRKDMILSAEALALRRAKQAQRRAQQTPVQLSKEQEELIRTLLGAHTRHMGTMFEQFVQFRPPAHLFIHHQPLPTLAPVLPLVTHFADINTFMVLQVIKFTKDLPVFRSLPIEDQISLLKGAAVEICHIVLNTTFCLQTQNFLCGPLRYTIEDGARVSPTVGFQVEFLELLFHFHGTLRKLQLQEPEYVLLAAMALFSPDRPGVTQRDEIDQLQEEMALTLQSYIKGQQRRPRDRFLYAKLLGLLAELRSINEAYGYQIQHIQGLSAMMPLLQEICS
Method in brief: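 Luminescent ONE-Glo read-out after 24 hr, 37 C exposure of double-stable HepG2-CYP2B6-hCAR reporter cells to a 15-point compound series, in the presence of 0.75 uM PK11195 (final).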

[5] = qHTS assay to identify small molecule antagonists of the estrogen related receptor (ERR) signaling pathway from Tox21 library - cell viability counter screen (AID 1224834); further: potency means the concentration at half of the fitted maximal effect; nearly all actives have a fitted effect of over 30% in size
Method in brief: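 CellTiter-Fluor fluorescence, read after 30 min at 37 C, measures viability of ERR cells. Cells plated at 2,000/well and incubated 6 h before pin-tool compound addition, then exposed 17.5 hours at 37 C.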

[6] = qHTS assay to identify small molecule antagonists of the estrogen related receptor signaling pathway with the pleiotropic PPARgamma coactivator (PGC) from Tox21 10K library - cell viability counter screen (AID 1224840; active means well fitted cell-killing curve with a large enough effect in the repeat runs, not every such curve was filed as active; inconclusive means weak or mixed curves, or effect the other way; inactive means no such curve, though single readings can be large or run the other way; further: potency means the concentration at half of the fitted maximal effect; nearly all actives have a fitted effect of over 40% in size)
Method in brief: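 Counter-screen for cytotoxicity: after 17.5 h compound exposure at 37 C, CellTiter-Fluor reagent added to PGC/ERR cells for 30 min and fluorescence read. Cells were seeded at 2,000 per well 6 h before dosing.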

[7] = biological target: Thyrotropin receptor (Homo sapiens) (UniProt P16473); assay: qHTS assay to identify small molecule agonists of the thyroid stimulating hormone receptor (TSHR) signaling pathway (AID 1224843; calls by dose curve; further: nearly all actives have a fitted effect of over 45% in size; further: potency means the concentration at half of the fitted maximal effect; on activation: on the % scale 0 is the no-effect control and ±100 the full control effect); details: TSHR-HEK293 cells, cAMP HTRF, agonist mode, 30 min; activation: at 92.4 µM (top of the series) unless noted
Sequence of UniProt P16473 (P16473 whole entry, looked up): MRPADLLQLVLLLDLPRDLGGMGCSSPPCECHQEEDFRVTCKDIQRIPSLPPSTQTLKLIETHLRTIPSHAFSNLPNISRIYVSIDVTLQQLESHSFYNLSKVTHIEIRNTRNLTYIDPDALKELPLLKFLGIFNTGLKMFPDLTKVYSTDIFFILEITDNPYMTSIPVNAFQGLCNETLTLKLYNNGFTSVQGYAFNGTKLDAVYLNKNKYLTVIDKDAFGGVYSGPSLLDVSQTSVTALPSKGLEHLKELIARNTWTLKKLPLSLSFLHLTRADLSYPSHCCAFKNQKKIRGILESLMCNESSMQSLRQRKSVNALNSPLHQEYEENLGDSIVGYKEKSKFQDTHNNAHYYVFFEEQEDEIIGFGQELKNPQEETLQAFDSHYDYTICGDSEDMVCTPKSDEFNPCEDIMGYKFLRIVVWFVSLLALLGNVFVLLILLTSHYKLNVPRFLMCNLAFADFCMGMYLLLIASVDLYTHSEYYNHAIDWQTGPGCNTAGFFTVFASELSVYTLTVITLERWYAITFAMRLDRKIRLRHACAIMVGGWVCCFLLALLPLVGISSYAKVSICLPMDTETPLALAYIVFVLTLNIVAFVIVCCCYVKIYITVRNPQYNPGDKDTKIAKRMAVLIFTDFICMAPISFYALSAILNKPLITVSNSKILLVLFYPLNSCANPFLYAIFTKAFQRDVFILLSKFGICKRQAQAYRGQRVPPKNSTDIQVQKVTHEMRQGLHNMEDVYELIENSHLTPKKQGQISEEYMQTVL
Method in brief: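 Agonist-mode screen: TSHR HEK293 cells received test chemicals for half an hour at room temperature, then HTRF cAMP detection reagents for one hour prior to fluorescence measurement. Each chemical ran as a 15-concentration series, triplicated.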

[8] = qHTS assay to identify small molecule agonists of the hypoxia (HIF-1) signaling pathway - cell viability counter screen (AID 1224844; calls by dose curve; further: potency means the concentration at half of the fitted maximal effect; nearly all actives have a fitted effect of over 50% in size)
Method in brief: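 Cytotoxicity measured by CellTiter-Glo ATP luminescence in the wells also read for beta-lactamase signal. Cells were HRE-bla ME-180 (2,000/well, 0.5% dialyzed FBS), exposed to compounds for 17 h at 37C.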

[9] = qHTS assay to identify small molecule agonists of the constitutive androstane receptor (CAR) signaling pathway - cell viability counter screen (AID 1224836); further: potency means the concentration at half of the fitted maximal effect; nearly all actives have a fitted effect of over 45% in size
Method in brief: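 Cell viability multiplexed with the CAR agonist screen: CellTiter-Fluor fluorescence after 23 hr at 37 C. HepG2-CYP2B6-hCAR cells got compounds at 15 concentrations with PK11195 at 0.75 uM final.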

[10] = qHTS assay to identify small molecule antagonists of the constitutive androstane receptor (CAR) signaling pathway - cell viability counter screen (AID 1224837); further: potency means the concentration at half of the fitted maximal effect; nearly all actives have a fitted effect of over 45% in size
Method in brief: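 Cytotoxicity counter-screen: CellTiter-Fluor fluorescence after 23 h compound exposure (15-point qHTS) in double-stable HepG2-CYP2B6-hCAR cells, with 50 nM CITCO added.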

[11] = biological target: Nuclear receptor subfamily 1 group I member 3 (Homo sapiens) (UniProt Q14994); assay: qHTS assay to identify small molecule antagonists of the constitutive androstane receptor (CAR) signaling pathway (AID 1224838);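 further: HepG2 cells stably expressing hCAR with CYP2B6 luciferase reporter stimulated by CITCO; potency means the concentration at half of the fitted maximal effect; nearly all actives have a fitted effect of over 40% in size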
Method in brief: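 Antagonism measured as luciferase signal (ONE-Glo, 30 min, room temperature) in CAR-stimulated cells: HepG2-CYP2B6-hCAR double-stable line exposed 24 hr at 37 C to compound in a 15-point series plus 50 nM CITCO.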

[12] = qHTS assay to identify small molecule antagonists of the estrogen related receptor signaling pathway with the pleiotropic PPARgamma coactivator (PGC) from Tox21 10K library (AID 1224841; call rule not given here; further: potency means the concentration at half of the fitted maximal effect; actives are mostly falling curves and most rising ones were filed inactive; nearly all actives have a fitted effect of over 50% in size)
Method in brief: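 Luminescence (One-Glo, 30 min at room temperature) after 18 h compound treatment at 37 C of PGC/ERR reporter cells plated at 2,000 cells/well and settled 6 h beforehand.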

[13] = qHTS assay to identify small molecule antagonists of the estrogen related receptor signaling pathway with the pleiotropic PPARgamma coactivator (PGC) cell viability counter screen (AID 1224822; further: potency means the concentration at half of the fitted maximal effect)
Method in brief: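 Viability counter-screen read by fluorescence intensity after 30 min with CellTiter-Fluor at 37 C; PGC/ERR reporter cells were exposed to compounds for 17.5 h at 37 C following a 6 h preincubation.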

[14] = qHTS assay to identify small molecule antagonists of the estrogen related receptor (ERR) signaling pathway - cell viability counter screen (AID 1224818); further: potency means the concentration at half of the fitted maximal effect;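 further: viability measured after 17.5 h of compound exposure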
Method in brief: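 Cytotoxicity counter screen: fluorescence from CellTiter-Fluor, added after 17.5 h compound exposure at 37 C and read 30 min later. ERR cell line seeded at 2,000 cells/well, preincubated 6 h before dosing.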

[15] = qHTS assay to identify small molecule antagonists of the estrogen related receptor (ERR) signaling pathway (AID 1224819;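 further: luminescence from an ERR-driven luciferase reporter measured with One-Glo reagent; on the % scale 0 is the no-effect control and ±100 the full control effect; nearly all actives have a fitted effect of over 50% in size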)
Method in brief: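 LOPAC library screened for antagonism as reduced One-Glo luminescence in ERR reporter cells (2,000/well). Compounds were added after 6 h pre-incubation and left 18 h at 37C; reading followed a 30 min room-temperature reagent step.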

[16] = system: estrogen-related receptor alpha (ERRalpha) with PGC-1alpha coactivator, human; assay: qHTS assay to identify small molecule antagonists of the estrogen related receptor signaling pathway with the pleiotropic PPARgamma coactivator (PGC) (AID 1224821; calls by dose curve)
Method in brief: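 A PGC/ERR cell line supplied by NTP is seeded, allowed 6 h at 37 C, and treated with test compounds in DMSO for 18 h. Signal is then measured as luciferase luminescence using One-Glo.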
Tags describe the fitted curve by direction and shape or compound fluorescence and quenching.

## Nc1ccc(Oc2ccc(Cl)cc2)cc1
[1]
  Potency: inactive
[2]
  Potency: inconclusive: 53.3 µM [activator, partial curve, poor fit]
[3]
  Potency: inconclusive: 61.9 µM [inhibitor, partial curve]
[4]
  Potency: inconclusive: 26.7 µM [activator, partial curve]

## OCCOCCN1CCN(C(c2ccccc2)c2ccc(Cl)cc2)CC1 (centres undefined)
[1]
  Potency: active: 60.3 µM and inactive
[2]
  Potency: inactive
[5]
  Potency: inconclusive: 29.8 µM [cytotoxic, partial curve]
[4]
  Potency: inactive
[6]
  Potency: active: 47.9 µM
[7]
  Potency: inconclusive: 47.9 µM [inhibitor, partial curve, poor fit]
[8]
  Potency: inconclusive: 9.52 µM [cytotoxic, single point]

## CN1CCN(CCCN2c3ccccc3Sc3ccc(S(=O)(=O)N(C)C)cc32)CC1
[1]
  Potency: inconclusive: 29.8 µM [inhibitor, single point]
[2]
  Potency: inconclusive: 29.8 µM [inhibitor, partial curve, poor fit]
[9]
  Potency: inconclusive: 37.6 µM [cytotoxic, partial curve, poor fit]
[10]
  Potency: inconclusive: 26.6 µM [cytotoxic, partial curve]
[11]
  Potency: inconclusive: 33.5 µM [inhibitor]
[6]
  Potency: inconclusive: 26.6 µM [cytotoxic, partial curve]
[12]
  Potency: inconclusive: 5.31 µM [falling, full curve]
[7]
  activation: inconclusive: -15.1% [at 42.5 µM]
[8]
  Potency: inconclusive: 23.9 µM [cytotoxic, partial curve]

## CC(N)=O
[1]
  Potency: inactive
[13]
  Potency: inactive

## CN(C)CCCN1c2ccccc2Sc2ccc(C(F)(F)F)cc21
[1]
  Potency: active: 29.8 µM
[2]
  Potency: inconclusive: 26.6 µM [inhibitor, partial curve]
[14]
  Potency: inconclusive: 29.8 µM [cytotoxic, single point]
[13]
  Potency: inconclusive: 32.2 µM [cytotoxic]
[10]
  Potency: inconclusive: 29.8 µM [cytotoxic, partial curve]
[11]
  Potency: inconclusive: 33.5 µM [inhibitor, single point]
[6]
  Potency: inconclusive: 33.5 µM [cytotoxic, single point]
[7]
  Potency: inactive

## O=C(O)c1cc(=O)[nH]c(=O)[nH]1
[1]
  Potency: inactive
[2]
  Potency: inconclusive: 23.7 µM [activator, partial curve]

## c1ccc(-c2ccccn2)nc1
[1]
  Potency: inactive
[2]
  activation: inconclusive: 2.97% [phenotype inactive]
[14]
  Potency: inactive
[15]
  Potency: inactive
[16]
  Potency: inconclusive: 33.5 µM [inhibitor, single point]
[3]
  Potency: inactive
[12]
  Potency: inconclusive: 34.4 µM [falling, partial curve]

## CC(=O)O[C@]1(C(C)=O)CC[C@H]2[C@@H]3C=C(Cl)C4=CC(=O)CC[C@]4(C)[C@H]3CC[C@@]21C
[1]
  Potency: inconclusive: 48.5 µM [inhibitor, partial curve] and inconclusive: 21.1 µM [inhibitor, partial curve]
[2]
  Potency: inconclusive: 61 µM [inhibitor, partial curve, poor fit]
[6]
  Potency: inconclusive: 68.5 µM [cytotoxic]
[8]
  Potency: inconclusive: 54.8 µM [cytotoxic, single point]

## COc1cccc(O)c1O
[1]
  Potency: active: 56.6 µM
[2]
  Potency: inconclusive: 79.9 µM [inhibitor]
[6]
  Potency: inconclusive: 63.5 µM [cytotoxic, partial curve]
[7]
  activation: inconclusive: 0.212%
[8]
  Potency: inconclusive: 64.1 µM [cytotoxic]

## CN1CCCC1=O
[1]
  Potency: inconclusive: 39.9 µM [inhibitor, partial curve, poor fit]

## CCCCC[C@H](O)/C=C/[C@H]1[C@H](O)CC(=O)[C@@H]1C/C=C\CCCC(=O)O
[1]
  Potency: inconclusive: 33.5 µM [inhibitor, single point]
[2]
  Potency: inactive
[7]
  Potency: active: 0.0266 µM

## Cc1ccc(Cl)c(N)c1Cl
[1]
  Potency: inconclusive: 68.6 µM [inhibitor, single point]
[2]
  Potency: inconclusive: 15.4 µM [inhibitor, full curve]
[10]
  Potency: inconclusive: 68.6 µM [cytotoxic, partial curve, poor fit]
[11]
  Potency: inconclusive: 19.3 µM [inhibitor, partial curve, poor fit]
[12]
  Potency: inconclusive: 61.1 µM [falling, single point]
[7]
  Potency: inconclusive: 34.4 µM [inhibitor, partial curve]
[8]
  Potency: inconclusive: 61.6 µM [cytotoxic, single point]
